From patent US20250154219A1, “PEPTIDE ANALOGS” (Adepthera LLC, priority 2017, published 2025)

Key:
Assay type in all cases: cell-based
CLR/RAMP1 receptor [1] = molecular target: T1, CLR/RAMP1 receptor (Homo sapiens, UniProt O60894+Q16602); experiment: CLR/RAMP1 cAMP receptor-activation assay (agonist mode);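 also: Dose–response over 10 threefold dilutions from 1.0 µM, run in duplicate, luminescent cAMP detection (RLU), activity scaled between vehicle control (0%) and maximal control (100%)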
CLR/RAMP1 receptor [2] = molecular target: T1, CLR/RAMP1 receptor; experiment: CLR/RAMP1 cAMP assay, antagonist mode (CGRP-stimulated)
CLR/RAMP2 receptor = CLR/RAMP2 receptor (Homo sapiens, UniProt O60895+Q16602); experiment: CLR/RAMP2 arrestin assay, antagonist mode (ADM-stimulated)
CLR/RAMP2 receptor, sequence (Q16602 23-461): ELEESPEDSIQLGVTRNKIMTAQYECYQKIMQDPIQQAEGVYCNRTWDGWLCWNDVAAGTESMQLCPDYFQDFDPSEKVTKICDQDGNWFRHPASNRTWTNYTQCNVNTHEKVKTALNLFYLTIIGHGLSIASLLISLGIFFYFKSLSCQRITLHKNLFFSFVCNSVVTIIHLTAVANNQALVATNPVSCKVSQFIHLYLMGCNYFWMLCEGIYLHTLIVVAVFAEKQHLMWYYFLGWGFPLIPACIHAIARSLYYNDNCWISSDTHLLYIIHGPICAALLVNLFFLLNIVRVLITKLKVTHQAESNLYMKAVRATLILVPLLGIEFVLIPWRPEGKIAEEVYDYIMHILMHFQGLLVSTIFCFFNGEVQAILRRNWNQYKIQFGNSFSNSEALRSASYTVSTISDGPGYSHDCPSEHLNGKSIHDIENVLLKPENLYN
CLR/RAMP2 receptor, sequence (O60895 43-175): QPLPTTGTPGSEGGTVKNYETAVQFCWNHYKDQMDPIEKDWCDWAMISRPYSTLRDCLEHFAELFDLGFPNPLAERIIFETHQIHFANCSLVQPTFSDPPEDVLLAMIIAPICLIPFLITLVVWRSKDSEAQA

T1 sequence (Q16602 23-461): as the sequence (Q16602 23-461) above
T1 sequence (O60894 27-148): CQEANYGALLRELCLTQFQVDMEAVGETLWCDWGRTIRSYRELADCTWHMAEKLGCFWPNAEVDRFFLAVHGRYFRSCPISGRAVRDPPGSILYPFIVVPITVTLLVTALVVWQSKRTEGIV

| Compound | agonistic potency for CLR/RAMP1 and/or CLR/RAMP2 receptors, in words (CLR/RAMP1 receptor [1]) | further results |
| --- | --- | --- |
| CSCC[C@H](NC(=O)[C@H](CC(C)C)NC(=O)[C@H](CCC(N)=O)NC(=O)[C@H](Cc1c[nH]c2ccccc12)NC(=O)[C@H](CC(C)C)NC(=O)[C@H](CCCNC(=N)N)NC(=O)[C@H](Cc1c[nH]cn1)NC(=O)[C@H](CO)NC(=O)[C@H](CC(C)C)NC(=O)[C@H](CC(N)=O)NC(=O)[C@H](CCC(N)=O)NC(=O)[C@@H](NC(=O)[C@H](CCC(N)=O)NC(=O)[C@@H]1CSSC[C@H](NC(=O)CNC(=O)[C@@H](NC(C)=O)C(C)C)C(=O)N[C@@H](C(C)C)C(=O)N[C@@H](CC(C)C)C(=O)NCC(=O)N[C@@H]([C@@H](C)O)C(=O)N1)C(C)C)C(=O)NCC(=O)N1CCC[C@H]1C(=O)N[C@@H](C)C(=O)NCC(=O)N[C@@H](CCCNC(=N)N)C(=O)N[C@@H](CCC(N)=O)C(=O)N[C@@H](CC(=O)O)C(=O)N[C@@H](CO)C(=O)N[C@@H](C)C(=O)N1CCC[C@H]1C(=O)N[C@H](C(=O)N[C@@H](CC(=O)O)C(=O)N1CCC[C@H]1C(=O)N[C@@H](CO)C(=O)N[C@@H](CO)C(=O)N1CCC[C@H]1C(=O)N[C@@H](Cc1c[nH]cn1)C(=O)N[C@@H](CO)C(=O)N[C@@H](Cc1ccc(O)cc1)C(N)=O)C(C)C [SEQ ID NO: 52, reference compound] | low potency ligands | – |
| CCCCCCCCCCCCCCCC(=O)NCCCC[C@H](NC(C)=O)C(=O)NCC(=O)N[C@H]1CSSC[C@@H](C(=O)N[C@H](C(=O)N[C@H](C(=O)N[C@@H](Cc2c[nH]cn2)C(=O)N[C@@H](CCCNC(=N)N)C(=O)N[C@@H](CC(C)C)C(=O)N[C@@H](C)C(=O)NCC(=O)N[C@@H](CC(C)C)C(=O)N[C@@H](CC(C)C)C(=O)N[C@@H](CO)C(=O)N[C@@H](CCCNC(=N)N)C(=O)N[C@@H](CO)C(=O)NCC(=O)NCC(=O)N[C@H](C(=O)N[C@H](C(=O)N[C@@H](CCCCN)C(=O)N[C@@H](CC(N)=O)C(=O)N[C@@H](CC(N)=O)C(=O)N[C@@H](Cc2ccccc2)C(=O)N[C@H](C(=O)N2CCC[C@H]2C(=O)N[C@H](C(=O)N[C@@H](CC(N)=O)C(=O)N[C@H](C(=O)NCC(=O)N[C@@H](CO)C(=O)N[C@@H](CCCCN)C(=O)N[C@@H](C)C(=O)N[C@@H](Cc2ccccc2)C(N)=O)C(C)C)[C@@H](C)O)C(C)C)C(C)C)C(C)C)[C@@H](C)O)C(C)C)NC(=O)[C@H]([C@@H](C)O)NC(=O)[C@H](C)NC(=O)[C@H]([C@@H](C)O)NC(=O)[C@H](CC(=O)O)NC1=O [SEQ ID NO: 74] | did not affect the characteristics of CGRP activity | – |
| CC[C@H](C)[C@H](NC(=O)[C@H](CCC(N)=O)NC(=O)[C@H](Cc1c[nH]cn1)NC(=O)[C@H](C)NC(=O)[C@H](CC(C)C)NC(=O)[C@H](CCCCN)NC(=O)[C@H](CCC(N)=O)NC(=O)[C@@H](NC(=O)[C@@H](NC(=O)[C@@H]1CSSC[C@H](NC(=O)CNC(=O)[C@H](CCCCN)NC(C)=O)C(=O)N[C@@H](CCCNC(=N)N)C(=O)N[C@@H](Cc2ccccc2)C(=O)NCC(=O)N[C@@H]([C@@H](C)O)C(=O)N1)[C@@H](C)O)C(C)C)C(=O)N[C@@H](Cc1ccc(O)cc1)C(=O)N[C@@H](CCC(N)=O)C(=O)N[C@@H](Cc1ccccc1)C(=O)N[C@H](C(=O)N[C@@H](CC(=O)O)C(=O)N[C@@H](CCCCN)C(=O)N[C@@H](CC(=O)O)C(=O)N[C@@H](CO)C(=O)N[C@@H](C)C(=O)N1CCC[C@H]1C(=O)N[C@H](C(=O)N[C@@H](CC(=O)O)C(=O)N1CCC[C@H]1C(=O)N[C@@H](CO)C(=O)N[C@@H](CO)C(=O)N1CCC[C@H]1C(=O)N[C@@H](Cc1c[nH]cn1)C(=O)N[C@@H](CO)C(=O)N[C@@H](Cc1ccc(O)cc1)C(N)=O)C(C)C)[C@@H](C)O [SEQ ID NO: 93] | did not exhibit increases in potency | – |
| CCCCCCCCCCCCCCCC(=O)N[C@@H](C)C(=O)N[C@H]1CSSC[C@@H](C(=O)N[C@H](C(=O)N[C@H](C(=O)N[C@@H](Cc2c[nH]cn2)C(=O)N[C@@H](CCCNC(=N)N)C(=O)N[C@@H](CC(C)C)C(=O)N[C@@H](C)C(=O)NCC(=O)N[C@@H](CC(C)C)C(=O)N[C@@H](CC(C)C)C(=O)N[C@@H](CO)C(=O)N[C@@H](CCCNC(=N)N)C(=O)N[C@@H](Cc2ccccc2)C(=O)N[C@H](C(=O)N[C@@H](CC(=O)O)C(=O)N[C@@H](CCCCN)C(=O)N[C@@H](CC(=O)O)C(=O)N[C@@H](CCCCN)C(=O)N[C@@H](CC(=O)O)C(=O)N[C@@H](CC(N)=O)C(=O)N[C@H](C(=O)N[C@@H](C)C(=O)N2CCC[C@H]2C(=O)N[C@@H](CCCNC(=N)N)C(=O)N[C@@H](CO)C(=O)N[C@@H](CCCCN)C(=O)N[C@H](C(=O)N[C@@H](CO)C(=O)N2CCC[C@H]2C(=O)N[C@@H](CCC(N)=O)C(=O)NCC(=O)N[C@@H](Cc2ccc(O)cc2)C(N)=O)[C@@H](C)CC)C(C)C)[C@@H](C)O)[C@@H](C)O)C(C)C)NC(=O)[C@H]([C@@H](C)O)NC(=O)[C@H](C)NC(=O)[C@H]([C@@H](C)O)NC(=O)[C@H](CC(=O)O)NC1=O [SEQ ID NO: 104] | did not exhibit increases in potency | – |
| CCCCCCCCCCCCCCCC(=O)N[C@@H](Cc1ccccc1)C(=O)NCC(=O)N[C@H]1CSSC[C@@H](C(=O)N[C@H](C(=O)N[C@H](C(=O)N[C@@H](CCC(N)=O)C(=O)N[C@@H](CCCCN)C(=O)N[C@@H](CC(C)C)C(=O)N[C@@H](C)C(=O)N[C@@H](Cc2c[nH]cn2)C(=O)N[C@@H](CCCNC(=N)N)C(=O)N[C@@H](CC(C)C)C(=O)N[C@@H](Cc2c[nH]c3ccccc23)C(=O)N[C@@H](CCC(N)=O)C(=O)N[C@@H](CC(C)C)C(=O)N[C@@H](CCSC)C(=O)NCC(=O)N2CCC[C@H]2C(=O)N[C@@H](CC(=O)O)C(=O)N[C@@H](CCCCN)C(=O)N[C@@H](CC(=O)O)C(=O)N[C@@H](CC(N)=O)C(=O)N[C@H](C(=O)N[C@@H](C)C(=O)N2CCC[C@H]2C(=O)N[C@@H](CCCNC(=N)N)C(=O)N[C@@H](CO)C(=O)N[C@@H](CCCCN)C(=O)N[C@H](C(=O)N[C@@H](CO)C(=O)N2CCC[C@H]2C(=O)N[C@@H](CCC(N)=O)C(=O)NCC(=O)N[C@@H](Cc2ccc(O)cc2)C(N)=O)[C@@H](C)CC)C(C)C)C(C)C)[C@@H](C)O)NC(=O)[C@H]([C@@H](C)O)NC(=O)CNC(=O)[C@H](Cc2ccccc2)NC(=O)[C@H](CCCNC(=N)N)NC1=O [SEQ ID NO: 105] | did not exhibit increases in potency | – |
| CCCCCCCCCCCCCCCC(=O)N[C@@H](CCCCN)C(=O)N[C@H](C(=O)N[C@@H](CCC(N)=O)C(=O)N[C@@H](CCCCN)C(=O)N[C@@H](CC(C)C)C(=O)N[C@@H](C)C(=O)N[C@@H](Cc1c[nH]cn1)C(=O)N[C@@H](CCC(N)=O)C(=O)N[C@H](C(=O)N[C@@H](Cc1ccc(O)cc1)C(=O)N[C@@H](CCC(N)=O)C(=O)N[C@@H](Cc1ccccc1)C(=O)N[C@H](C(=O)N[C@@H](CC(=O)O)C(=O)N[C@@H](CCCCN)C(=O)N[C@@H](CO)C(=O)N[C@@H](C)C(=O)N1CCC[C@H]1C(=O)N[C@H](C(=O)N[C@@H](CC(=O)O)C(=O)N1CCC[C@H]1C(=O)N[C@@H](CO)C(=O)N[C@@H](CO)C(=O)N1CCC[C@H]1C(=O)N[C@@H](Cc1c[nH]cn1)C(=O)N[C@@H](CO)C(=O)N[C@@H](Cc1ccc(O)cc1)C(N)=O)C(C)C)[C@@H](C)O)[C@@H](C)CC)C(C)C [SEQ ID NO: 125] | – | CLR/RAMP1 Max Activity % of positive control (antagonist) (CLR/RAMP1 receptor [2]; antagonist mode): 93 % of positive control; CLR/RAMP2 Max Activity % of positive control (antagonist) (CLR/RAMP2 receptor; antagonist mode): 100 % of positive control |
| CCCCCCCCCCCCCCCC(=O)N[C@@H](CCCCN)C(=O)N[C@H](C(=O)N[C@@H](CCC(N)=O)C(=O)N[C@@H](CCCCN)C(=O)N[C@@H](CC(C)C)C(=O)N[C@@H](CC(N)=O)C(=O)N[C@@H](Cc1ccccc1)C(=O)N[C@H](C(=O)N1CCC[C@H]1C(=O)N[C@H](C(=O)N[C@@H](CC(N)=O)C(=O)N[C@H](C(=O)NCC(=O)N[C@@H](CO)C(=O)N[C@@H](CCCCN)C(=O)N[C@@H](C)C(=O)N[C@@H](Cc1ccccc1)C(N)=O)C(C)C)[C@@H](C)O)C(C)C)C(C)C [SEQ ID NO: 142] | – | IC50 (CLR/RAMP1 receptor [2]): < 0.5 nM; IC50 (CLR/RAMP2 receptor): > 200 nM |
